Source: PubChem BioAssay AID2101 (National Center for Advancing Translational Sciences (NCATS), 2009)
Out of some 330,000 compounds screened, about 300 (0.091%) were called active. Inconclusive results, whose numbers are uncertain, are shown with a selection of clear calls. The call rests on the fitted dose curve; in most records, active means well fitted inhibition curve with a large enough effect; inconclusive means small, poorly fitted or top-dose-only effect, or effect the other way, or another doubt; inactive means no such curve, though single readings can be large or run the other way. Potencies of inconclusive entries are left out as doubtful fits.

Molecular target: Lysosomal acid glucosylceramidase (Homo sapiens) (UniProt P04062)
Test: qHTS Assay for Inhibitors and Activators of N370S glucocerebrosidase as a Potential Chaperone Treatment of Gaucher Disease;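 on activity change, negative = inhibition: 0% = full enzyme activity and -100% = no enzyme basal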
Conditions: N370S GC spleen homogenate, 4MU-glucoside fluorescence; activity change, negative = inhibition: at 59.4 µM (top of the series) unless noted
Potency means the concentration at half of the fitted maximal effect.

| Compound | activity change, negative = inhibition | Potency |
| --- | --- | --- |
| COC(=O)c1c(-c2cc(C)ccc2C)csc1NC(=O)C1CC=CCC1C(=O)O (configuration not stated) | inactive: 7.23% | – |
| c1ccc(C(c2ccccc2)c2noc(CN3CCN(CC4CC4)CC3)n2)cc1 | – | inconclusive [inhibitor, full curve, poor fit] |
| Cc1ccc(NC(=O)CSc2nc3nc(C)cc(C)c3c(=O)[nH]2)cc1 | – | inconclusive [activator, partial curve, poor fit] |
| C(=C\c1nccc2c1[nH]c1ccccc12)/c1ccccc1 | – | inconclusive [activator, partial curve] |
| CCOC(=O)c1nn(-c2ccccc2)c2nc(-c3ccc(OC)cc3)c(C#N)c(=O)n12 | – | inconclusive [activator, single point] |
| COc1ccccc1C(=O)NCC(=O)Nc1ccc2c(c1)OCO2 | inactive: -8.64% | – |
| COC(=O)c1sc2nc(N3CCCCC3)c3c(c2c1N)CCCC3 | – | inconclusive [activator, partial curve] |
| CC(=O)N1CCC(C(=O)Nc2ccccc2)(N(Cc2ccccc2)C(=O)c2cccnc2)CC1 | inactive: -20.7% | – |
| COC(=O)C1=CNC=C(C(=O)OC)C1c1cccc2ccccc12 | – | inconclusive [activator, partial curve] |
| O=C(c1ccccc1N(Cc1ccccc1)S(=O)(=O)c1ccccc1)N1CCOCC1 | – | inconclusive [activator, partial curve] |
| O=C(O)c1ccc(C=C(c2nc3ccccc3s2)c2nc3ccccc3s2)cc1 | inactive: 4.43% | – |
| O=c1c2[nH]c3ccc(F)cc3c2ncn1CCCN1CCOCC1 | inactive: 9% | – |
| CN(Cc1c(F)cccc1Cl)C(=O)c1cc2ccccc2o1 | – | inconclusive [activator, single point] |
| COCCCNC(=O)c1c(-c2ccccc2)noc1C | inactive: 29.7% | – |
| O=C(NCc1ccco1)c1c2c(nc3ccccc13)CCC2 | inactive: 2.3% | – |
| COc1ccc(N=C2S/C(=C\c3cc(C)n(C)c3C)C(=O)N2C)cc1 | – | inconclusive [inhibitor, single point] |
| COc1cc(OC)cc(C(=O)N(Cc2nc(-c3cccc(C)c3)no2)C(C)C)c1 | – | inconclusive [activator, partial curve] |
| Cc1ccc2cc(CN(C(=O)c3cccs3)c3ccccc3)c(=O)[nH]c2c1 | – | inconclusive [activator, partial curve] |
| COCCNc1nc(-c2ccccc2)nc2c1oc1ccccc12 | inactive: 26.2% | – |
| CCOC(=O)c1cnc2cc(C)ccn2c1=O | – | inconclusive [activator, single point] |
| Cc1cccc2c(=O)c(C(=O)NCCc3ccccc3)c[nH]c12 | – | inconclusive [activator, single point] |
| Cc1cnn(CCC(=O)NNC(=S)NCC(C)C)c1 | inactive: 7.63% | – |
| COc1ccccc1Nc1cc(C)nc(Nc2ccccc2OC)n1 | – | inconclusive [inhibitor, partial curve] |
| C/C(=N\NC(=O)c1nn(C)c(C)c1Br)c1ccc(NC(=O)C2CCCC2)cc1 | inactive: 0.733% | – |

| Compound | activity change, negative = inhibition | Potency |
| --- | --- | --- |
| COC(=O)c1cc(NS(=O)(=O)c2ccc(NCc3cccnc3)c(N)c2)cc(C(=O)OC)c1 | inactive: -7.12% | – |
| COc1cc(N(C)C)cc(CN(C)CCc2ccc([N+](=O)[O-])cc2)c1O | inactive: -9.37% | – |
| Cc1ccsc1/C=N/n1c(-c2ccccc2)n[nH]c1=S | inconclusive: 11.3% [activator] | – |
| O=C(CSC1=N/C(=C/c2ccc(Cl)c(Cl)c2)C(=O)N1c1ccccc1F)NC1CC1 | inconclusive: 30.2% [activator] | – |
| COc1cc2cc(CN(CCN3CCCC3)C(=O)Nc3ccc(F)cc3)c(=O)[nH]c2cc1OC | inactive: -1.1% | – |
| Cc1cccc(NC(=O)CSc2nc3ccccc3nc2N2CCCC2)c1 | – | inconclusive [activator, single point] |
| Cc1ccc(OCc2nc(C#N)c(NCc3ccc4c(c3)OCO4)o2)cc1 | – | inconclusive [activator, partial curve, poor fit] |
| O=S(=O)(c1cc(C(F)(F)F)ccc1Cl)N1CCN(c2ncnc3ccccc23)CC1 | – | inconclusive [inhibitor, full curve] |
| Cc1snc2sc(C(=O)c3ccc(F)cc3)c(N)c12 | inactive: 18.9% | – |
| Cc1cccc(C2=NN(c3ccccc3)[C@H](CO)[C@H]2C)c1 | – | inconclusive [activator, partial curve] |
| CCN(c1ccccc1)S(=O)(=O)c1cc(C(=O)NCc2ccccn2)ccc1C | inactive: -1.72% | – |
| Cc1cccc(OCCOc2ccccc2C=C(C#N)C#N)c1 | – | inconclusive [activator, single point] |
| CCN1CCN(c2oc(/C=C/c3ccccc3)nc2C#N)CC1 | – | inconclusive [activator, partial curve] |
| Cc1cc(=O)oc2c3c(cc(OCC(=O)NCCC(=O)O)c12)OC(C)(C)CC3 | – | inconclusive [activator, single point] |
| CC1CCCC(NC(=O)COC(=O)c2ccccc2Sc2ccccc2C#N)C1C (configuration not stated) | – | inconclusive [activator, partial curve] |
| CCCC(=O)Oc1ccc2c(C)cc(=O)oc2c1 | – | inconclusive [activator, partial curve] |
| COc1cc2ncnc(NCc3ccccc3Cl)c2cc1OC | – | inconclusive [inhibitor, full curve, poor fit] |
| Nc1c(S(=O)(=O)c2cccs2)c2nc3ccccc3nc2n1Cc1ccccc1 | – | inconclusive [activator, partial curve] |
| Cc1ccc(-c2cc(C(=O)N3CC(C)OC(C)C3)c3ccccc3n2)o1 (configuration not stated) | – | inconclusive [activator, partial curve] |
| CCCc1cc(=O)n2[nH]c(-c3ccc(Br)cc3)cc2n1 | – | inconclusive [activator, full curve, poor fit] |
| Cc1ccc(C(=O)Nc2nc(-c3ccco3)c(-c3ccco3)s2)o1 | inactive: -4.13% | – |
| Cc1ccc(Nc2nc(CSc3nnc(-c4ccccc4)n3C)cs2)cc1 | – | inconclusive [activator, single point] |
| CC(C)(C)C1CCC(OCC(O)CN2CCN(Cc3ccccc3)CC2)CC1 (configuration not stated) | – | inconclusive [inhibitor, partial curve] |
| c1ccc(Oc2c3ccccc3nc3ccccc23)cc1 | inactive: 6.15% | – |

| Compound | activity change, negative = inhibition | Potency |
| --- | --- | --- |
| COc1cccc(-c2nc(NC3CC3)c3ccccc3n2)c1 | – | inconclusive [inhibitor, partial curve] |
| COc1ccc(/C=C2\CCc3ccccc3C2=O)cc1Cn1nc(C)cc1C | – | inconclusive [activator, partial curve] |
| C/C(N)=C(/C#N)C(=O)COC(=O)c1ccccc1Cc1ccccc1 | – | inconclusive [inhibitor, single point] |
| COc1ccc(CNCCC(c2ccc(OC(C)C)cc2)c2ccccc2OC)cc1 (configuration not stated) | – | inconclusive [inhibitor, partial curve] |
| O=c1[nH]ncc(N/N=C\c2ccncc2)c1Cl | inactive: -10.3% | – |
| Cc1cc(N/N=C/c2ccc(F)cc2)nc(NCc2ccccc2)n1 | – | inconclusive [inhibitor, single point] |
| CCn1c(SCC(=O)Nc2ccc3c(c2)OCO3)nc2ccccc21 | – | inconclusive [activator, single point] |
| C[N+]1(C)C[C@@H](O)C[C@@H]1C(=O)[O-] | inactive: 5.95% [at 21.6 µM] | – |
| COC(=O)c1sc(=S)n(-c2ccccc2OC)c1N | – | inconclusive [activator, partial curve] |
| COc1ccc(C2CC(=O)Oc3c(C(CCN4CCOCC4)c4ccc5c(c4)OCO5)c(OC)cc(OC)c32)cc1 (configuration not stated) | – | inconclusive [inhibitor, partial curve] |
| Cc1cc(C)n(-c2nnc(C)n2N)n1 | – | inconclusive [inhibitor, full curve, poor fit] |
| CCCCN(Cc1cc2ccccc2[nH]c1=O)S(=O)(=O)c1ccc(C)cc1 | – | inconclusive [activator, single point] |
| Nc1nc(CN2CCCCCC2)nc(Nc2ccccc2)n1 | inactive: -9.05% | – |
| Cc1ccc(CSc2nccc(-c3c(C)nc4ccccn34)n2)cc1 | – | inconclusive [activator, single point] |
| CC(C(=O)c1ccc(-c2ccccc2)cc1)[n+]1cccc(NC(=O)c2ccccc2)c1 (configuration not stated) | – | inconclusive [inhibitor, single point] |
| Cc1cccc(N(C)S(=O)(=O)c2ccc3[nH]cc(C(=O)N4CCOCC4)c(=O)c3c2)c1 | inactive: -10.4% | – |
| O=C(O)CSc1c2c(nc3cc(C(=O)Nc4ccc(F)c(Cl)c4)ccc13)CCCC2 | – | inconclusive [inhibitor, single point] |
| Nn1cc(Br)c(=O)[nH]c1=O | inactive: -1.6% | – |
| O=C(CCl)N1c2ccccc2SCC1c1ccccc1 (configuration not stated) | inactive: -1.67% | – |
| CCCN(CCC)CCCNC(=O)c1ccc2c(Cl)c3c(nc2c1)CCC3 | inactive: -4.9% | – |
| CCOC(=O)c1[nH]c(C)c(/C(O)=C2\C(=O)C(=O)N(CCCN3CCOCC3)C2c2cccnc2)c1C (configuration not stated) | inactive: 0.113% | – |
| CCCCNc1c(-c2cccc(-c3cc(C(C)=O)cs3)c2)nc2cc(C)ccn12 | – | inconclusive [inhibitor, partial curve] |
| O=c1c2ccccc2c(=O)n(Cc2ccccc2)n1Cc1ccccc1 | – | inconclusive [activator, partial curve] |
| O=C(/C=C/c1cccc([N+](=O)[O-])c1)N1CCOCC1 | inactive: 7.19% | – |
